# The list shows a part of the results. The energies were worked out here from pooled read counts, against the library average; single values are noisy.
# Molecular target: T1, Pho4 (S. cerevisiae) (UniProt P07270)
# T1 sequence: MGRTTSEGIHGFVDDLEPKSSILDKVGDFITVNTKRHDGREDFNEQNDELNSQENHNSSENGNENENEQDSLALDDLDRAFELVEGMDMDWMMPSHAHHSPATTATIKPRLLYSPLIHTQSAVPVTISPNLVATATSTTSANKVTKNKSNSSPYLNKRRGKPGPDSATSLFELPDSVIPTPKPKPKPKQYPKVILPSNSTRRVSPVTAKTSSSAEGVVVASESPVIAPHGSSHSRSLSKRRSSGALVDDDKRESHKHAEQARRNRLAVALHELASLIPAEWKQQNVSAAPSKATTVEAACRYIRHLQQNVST
# Assay: relative binding free energy (BET-seq); higher = weaker binding
# Conditions: reference: library average
row,Sequence,relative binding free energy [kcal/mol]
1,TCGGTCACGTGAGCGG,0.11
2,AAGCGCACGTGGTGTT,-0.21
3,GATAGCACGTGTGAAT,0.24
4,CTTGGCACGTGGGTGG,-0.11
5,AATGGCACGTGGCGCG,-0.31
6,GTGGACACGTGTGCAG,0.02
7,GGCAGCACGTGTTTGG,0.01
8,AGGGGCACGTGTGCAG,-0.07
9,TTAGACACGTGGATGT,0.01
10,ATGCGCACGTGCGGGG,-0.09
11,TGTACCACGTGGTGGG,-0.16
12,ATTTCCACGTGGGTGG,-0.02
13,TAGAGCACGTGAGGAA,0.21
14,TTCGGCACGTGGAGGC,-0.16
15,TTTAGCACGTGGTTTT,-0.1
16,TAGTTCACGTGATGGA,0.52
17,AGTCGCACGTGGTGGA,-0.13
18,GGTCACACGTGTTTGT,0.12
19,TGCGACACGTGTGGTT,-0.02
20,GGGGTCACGTGTTAAA,0.22
21,TGAAGCACGTGTGGTA,-0.02
22,CGGAGCACGTGGTGGA,-0.1
23,GGGGCCACGTGATTGT,0.21
24,TAAGTCACGTGCATGT,0
25,TTATACACGTGGTTAG,-0.09
26,TTGATCACGTGTTTTG,0.12

row,Sequence,relative binding free energy [kcal/mol]
1,TGTGTCACGTGCCATT,-0.06
2,AGGGGCACGTGTGGTT,-0.03
3,CTTGACACGTGAGTTT,0.3
4,CTGTTCACGTGATTGT,0.32
5,TGATTCACGTGTCCTG,0.28
6,GTAATCACGTGTTTTT,0.29
7,TGGGACACGTGGCGTC,-0.07
8,TCTGTCACGTGGCTGT,0
9,ATAAGCACGTGCTTGT,-0.12
10,TGTTGCACGTGCCGGA,-0.16
11,TTGATCACGTGTATAG,0.2
12,TACTTCACGTGAGGTG,0.38
13,ATGAACACGTGTTTTT,0.05
14,TTTCGCACGTGAAGAG,0.18
15,AGGATCACGTGCGGAA,0.3
16,AATGGCACGTGAGTGA,0.13
17,GTGGCCACGTGTAATG,-0.01
18,TGATGCACGTGAGAGT,0.27
19,GCAGGCACGTGGGGCG,-0.3
20,TTGTTCACGTGTTAGG,0.36
21,TCTGACACGTGCGGTT,0.03
22,CTTGTCACGTGGTATA,0
23,TTTGACACGTGGCCGT,-0.15
24,TAGTACACGTGTACTG,0.03
25,ATGGTCACGTGAAAGA,0.29
26,GGCTTCACGTGGGGAG,0.33

row,Sequence,relative binding free energy [kcal/mol]
1,GTTAGCACGTGTCGGC,0.08
2,TGGATCACGTGGCTTT,0.12
3,TCGTTCACGTGCTGGT,0.2
4,AGTGTCACGTGTGTGT,0.05
5,GGTAGCACGTGCTGTA,0.08
6,GCGGGCACGTGTGAAT,0.01
7,TTGTTCACGTGTTTAA,0.17
8,AAAGGCACGTGATGGT,0
9,AGTATCACGTGATGGT,0.27
10,GAGGTCACGTGCGCGT,0.02
11,TTACACACGTGGGTAT,-0.05
12,TTCATCACGTGGGGGT,-0.01
13,TATTTCACGTGGTCGT,0.28
14,TTCGTCACGTGATTCG,0.25
15,GAGAGCACGTGGGGAG,-0.07
16,GTGGGCACGTGAGGGT,0.25
17,TACTTCACGTGTTGTG,0.09
18,GAGTACACGTGTGATA,0.17
19,GGGAACACGTGGTCGG,0.15
20,CGGTACACGTGTCGTG,0.05
21,ATTACCACGTGTGGTG,-0.02
22,TGTGACACGTGCTGCG,-0.07
23,GGGATCACGTGCCGGT,0.1
24,TTTAACACGTGAAAGG,0.34
25,GCTTGCACGTGGAGAG,0
26,AGTTACACGTGTAAAT,0.31

row,Sequence,relative binding free energy [kcal/mol]
1,TGGGTCACGTGAGGCG,0.26
2,TGTTACACGTGTACTA,0.24
3,GTAGACACGTGGTGAT,-0.05
4,ACTTTCACGTGTGAGG,0.37
5,AGGTTCACGTGTCGGG,0.3
6,TCAAGCACGTGTAGTG,-0.12
7,CCTTTCACGTGTGGTG,0.13
8,AGGTGCACGTGCTCGT,-0.23
9,GTCCTCACGTGGTTGT,0.22
10,GGGTTCACGTGTTGAG,0.46
11,GTGAGCACGTGTGGAG,-0.01
12,TTTGGCACGTGGTGTT,-0.18
13,GTAGGCACGTGTCGGT,0.05
14,GTTCGCACGTGGTGGT,-0.01
15,GGGGGCACGTGTCCAG,-0.05
16,AGCTACACGTGTGGTT,0.05
17,TGTTGCACGTGACTGG,0.06
18,GGTGGCACGTGTGTCA,0.02
19,TTGGGCACGTGCTTTT,-0.13
20,GGCTTCACGTGGGGTC,0.2
21,TGCATCACGTGAGTGT,0.26
22,TATATCACGTGCTGTT,0.09
23,TAGGTCACGTGATTTA,0.23
24,TTAGTCACGTGGTGAA,0.04
25,TGTTGCACGTGGATGC,0.06
26,CATGTCACGTGTGAGC,0.29

row,Sequence,relative binding free energy [kcal/mol]
1,TGCGTCACGTGGGATC,-0.01
2,CGTGACACGTGTTTGG,-0.01
3,TGCGGCACGTGGCGGT,-0.11
4,ATTATCACGTGCGGTC,0.26
5,TTTCACACGTGATGAT,0.3
6,GGGCGCACGTGGGATT,-0.2
7,GTGTTCACGTGCGTTT,0.26
8,TCTGTCACGTGGGAGC,-0.01
9,GGTATCACGTGTATCA,0.32
10,CAGATCACGTGTTGTT,0.12
11,GGGGACACGTGTGGGC,0.16
12,GCTGTCACGTGGGGGA,0.04
13,TTGAACACGTGGATGT,0.04
14,GGTTTCACGTGCAAGA,0.44
15,GCAGTCACGTGATGGG,0.15
16,ATTCACACGTGAGTTG,0.35
17,TAGGTCACGTGGTTAT,0.09
18,AAGTTCACGTGTATAG,0.16
19,AAGTTCACGTGGGTAT,0.13
20,AAGAGCACGTGTGTCG,-0.1
21,ATATACACGTGAGGAT,0.36
22,GATGCCACGTGTTTGG,-0.01
23,AATTTCACGTGGGTTG,0.16
24,TGTGACACGTGAGACT,0.26
25,CTGGGCACGTGGCGCG,-0.19
26,GGTAGCACGTGATTAG,0.2

row,Sequence,relative binding free energy [kcal/mol]
1,TTCGGCACGTGGTGGG,-0.09
2,CGGCTCACGTGTTTAG,0.31
3,CTAAGCACGTGGTTGG,-0.23
4,AAACGCACGTGATGAG,0.21
5,TAGTTCACGTGCGGAC,0.38
6,CGTAGCACGTGGGGCG,-0.2
7,TAGTACACGTGAATTT,0.23
8,TAAAACACGTGGGCGT,-0.04
9,AAACGCACGTGTAGTG,0.01
10,TGTTACACGTGGTAGT,0.02
11,TGGGACACGTGTGCGC,0.06
12,GGTGACACGTGGAAGG,0.08
13,GTATGCACGTGAGGCA,0.24
14,AGTAGCACGTGGGGCA,-0.24
15,CAGGTCACGTGTCGGT,0.16
16,GGATTCACGTGGAGAC,0.38
17,ATCTGCACGTGAGGAT,0.21
18,TCGTGCACGTGTATTT,0.05
19,GTGATCACGTGGAGCT,0.08
20,GGGACCACGTGTGGAT,0.1
21,GGGGACACGTGGGATC,0.07
22,ATTCTCACGTGTATTG,0
23,TGAGACACGTGAGATT,0.22
24,ATTTACACGTGCTTGA,0.05
25,GTGGACACGTGGGGAG,0.01
26,TGTTGCACGTGTACTA,-0.09

row,Sequence,relative binding free energy [kcal/mol]
1,TGGAGCACGTGACTTT,0.1
2,TGTTGCACGTGCTGTC,-0.01
3,TAAGGCACGTGTGGAG,-0.03
4,GGTCGCACGTGGGGTA,-0.21
5,TGTTTCACGTGAGTCT,0.36
6,GCTGTCACGTGATTTG,0.27
7,GTGGGCACGTGAAAGA,0.28
8,AGGGACACGTGGCAAG,-0.1
9,AAAAACACGTGAAGGT,0.43
10,ATGCTCACGTGACGGT,0.26
11,GGTTACACGTGTAGGT,0.19
12,GTGGACACGTGTATAG,0.14
13,TATGACACGTGTTTCG,0.08
14,TGGATCACGTGTAAGT,0.27
15,ATAAGCACGTGTGGTC,-0.11
16,TGGGGCACGTGCGCTG,-0.21
17,TGTGTCACGTGTTGCC,0.1
18,ATGTGCACGTGTCAGT,-0.02
19,TGTGCCACGTGTTGCG,-0.03
20,GGGGTCACGTGTGTAA,0.13
21,GGGTTCACGTGTCGAT,0.31
22,AGATACACGTGTGGTG,0.12
23,TGTACCACGTGAGGGT,0.07
24,TTCTTCACGTGATTGT,0.22
25,TATGACACGTGGGCGG,-0.08
26,ATTAGCACGTGTCGTT,-0.11

row,Sequence,relative binding free energy [kcal/mol]
1,GGGGCCACGTGCGTGG,-0.2
2,CATGGCACGTGGGGCT,-0.22
3,TTAATCACGTGGTAGT,0.02
4,GGGTCCACGTGGGCGG,-0.14
5,TGGGGCACGTGTAACT,0.11
6,GTGGACACGTGGTGGG,0.04
7,ATGTACACGTGAATTA,0.29
8,TGATTCACGTGCTATT,0.21
9,GTTACCACGTGGGAAG,0.03
10,CAAGGCACGTGTGTAA,0.03
11,GTGGGCACGTGTGAAT,0.17
12,AGAGACACGTGGGGAA,-0.02
13,TTATGCACGTGAGGAA,0.08
14,GGTGGCACGTGGGCTG,-0.17
15,TGTAACACGTGGATTG,0.03
16,GGTCACACGTGGTATT,0.04
17,GTATGCACGTGTAAGG,0.13
18,CTTCGCACGTGTGGGA,-0.09
19,TATCACACGTGGTGTA,0
20,TTTTGCACGTGGATGT,0.21
21,TTAGTCACGTGTGTGC,0.08
22,GGACTCACGTGGTCTG,0.24
23,TTGTTCACGTGCAGCG,0.21
24,AAGTTCACGTGCGCTG,0.27
25,TCATGCACGTGAGTTT,0.24
26,GGTTACACGTGCAGGG,0.07

row,Sequence,relative binding free energy [kcal/mol]
1,CCCGGCACGTGGTAGG,-0.08
2,GTGATCACGTGTGTTG,0.15
3,TAAATCACGTGTTGCT,0.13
4,CTGTTCACGTGTATGG,0.16
5,TACGGCACGTGTGGTG,-0.05
6,TTTTACACGTGAGTAT,0.35
7,CTATTCACGTGTGAGT,0.18
8,ATAAACACGTGGGGAT,-0.17
9,CTGGTCACGTGGATTG,0.15
10,TTATTCACGTGTGCAA,0.31
11,TCGCACACGTGGGGGG,-0.11
12,TTACTCACGTGTCGTT,0.27
13,TAGTTCACGTGGCGCA,0.22
14,GGTCGCACGTGGTTGA,-0.07
15,TGGGACACGTGTAGGG,0.07
16,CTGGTCACGTGCTTTT,-0.06
17,TGTATCACGTGGCCTT,0.07
18,GTTGACACGTGATGCG,0.08
19,ATGTGCACGTGTTCGA,-0.02
20,TCTGTCACGTGAAAGG,0.32
21,AGTGCCACGTGTGGCG,-0.07
22,AGTCTCACGTGATAGT,0.27
